# PubChem BioAssay AID1768 (National Center for Advancing Translational Sciences (NCATS), 2009)
# About 620 (0.23%) of roughly 270,000 compounds were called active. Inconclusive results, whose numbers are uncertain, are shown with a selection of clear calls. Calls follow the shape of the dose curve; as a rule, active = well fitted inhibition curve with a large enough effect in the polarisation, with a control signal flat (not every such curve was filed as active); inconclusive = small, poorly fitted or top-dose-only effect, or effect the other way, or a change in a side signal; inactive = no such curve, though single readings can be large or run the other way; the % refers to the polarisation. Where the call is inconclusive, the potency comes from a doubtful curve fit. “Side channel” marks fits to a control or component signal instead of the main read-out.
# Biological target: Menin (Homo sapiens) (UniProt O00255)
# Sequence of UniProt O00255 (O00255 whole entry, looked up): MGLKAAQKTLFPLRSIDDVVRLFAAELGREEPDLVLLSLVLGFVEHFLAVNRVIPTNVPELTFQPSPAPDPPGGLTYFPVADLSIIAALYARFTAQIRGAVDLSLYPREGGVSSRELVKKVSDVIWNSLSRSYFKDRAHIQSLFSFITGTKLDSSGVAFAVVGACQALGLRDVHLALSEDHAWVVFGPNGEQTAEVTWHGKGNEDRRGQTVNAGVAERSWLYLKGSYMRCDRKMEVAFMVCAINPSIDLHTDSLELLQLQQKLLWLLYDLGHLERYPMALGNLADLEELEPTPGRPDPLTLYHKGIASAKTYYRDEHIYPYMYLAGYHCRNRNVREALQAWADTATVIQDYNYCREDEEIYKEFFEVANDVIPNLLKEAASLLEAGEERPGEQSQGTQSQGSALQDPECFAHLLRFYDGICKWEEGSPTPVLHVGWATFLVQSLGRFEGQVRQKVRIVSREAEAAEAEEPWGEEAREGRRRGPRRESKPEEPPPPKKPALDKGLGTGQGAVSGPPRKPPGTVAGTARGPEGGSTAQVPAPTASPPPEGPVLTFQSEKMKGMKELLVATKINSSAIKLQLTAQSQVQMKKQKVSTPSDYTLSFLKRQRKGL
# Assay: qHTS Assay for Inhibitors Targeting the Menin-MLL Interaction in MLL Related Leukemias: Competition With Texas Red Labeled MLL-derived Mutant Peptide
# Details: fluorescence polarization; series mostly up to 61.6 µM
# Potency is read from the fitted curve at half-maximal effect; tags tell the direction and shape of the fitted curve or compound fluorescence and quenching.
row,SMILES,Potency
1,Cc1ccc(-c2cc3ccccc3nc2N2CCOCC2)cc1,"inconclusive: 10 µM [fluorescent, side channel, partial curve]"
2,Nc1nnc(CC(=O)N/N=C/c2cc([N+](=O)[O-])cc(Br)c2O)s1,"inconclusive: 35.5 µM [quencher, side channel, single point]"
3,CCOc1cc(/C=C2\C(=O)ON=C2c2ccccc2)ccc1OC,"inconclusive: 28.2 µM [quencher, side channel, partial curve]"
4,COCCn1c(-c2ccccc2Cl)nc2c(c(=O)c3ccccc3n2C)c1=O,inactive
5,CN(C)c1ccc(/C=N/NC(=O)CCc2c[nH]c3ccccc23)cc1,"inconclusive: 25.1 µM [quencher, side channel, partial curve]"
6,CCCCNC(=O)Cn1cnc2sc(C)c(S(=O)(=O)N3CCN(c4ncccn4)CC3)c2c1=O,"inconclusive: 28.2 µM [inhibitor, single point]"
7,O=C1CCCC(=O)N1c1ccc(N2CCN(c3ccc([N+](=O)[O-])cc3)CC2)c([N+](=O)[O-])c1,"inconclusive: 25.1 µM [quencher, side channel, partial curve]"
8,N#C/C(=C\c1ccc(-c2cccc([N+](=O)[O-])c2)o1)C(=O)N1CCOCC1,"inconclusive: 14.1 µM [quencher, side channel, partial curve]"
9,CC1(C)Cc2nc3sc4c(N(CCO)CCO)nnnc4c3cc2CO1,inactive
10,S=C(NCCc1ccc(Cl)cc1)Nc1ccc(Cl)cc1Cl,"inconclusive: 12.6 µM [quencher, side channel, partial curve]"
11,O=C1N(Cc2cccc(Cl)c2)C[C@@H]2C[C@@H](c3c[nH]c4ccccc34)N3CCC[C@@]123,"inconclusive: 8.91 µM [fluorescent, side channel, partial curve]"
12,COCCNc1ncnc2ccc(-c3c(C)noc3C)cc12,inactive
13,CC(=O)CCc1oc2ccc(NC(C)=O)cc2c1-c1ccc(C)o1,inactive
14,Cc1cc(C)c(S(=O)(=O)N2CCN(C(=O)c3ccc4c(c3)OCO4)CC2)c(C)c1,"inconclusive: 15.8 µM [fluorescent, side channel, partial curve]"
15,CCOc1ccc(S(=O)(=O)Nc2cc(SCC(=O)O)c(O)c3ccccc23)cc1,"inconclusive: 28.2 µM [quencher, side channel, single point]"
16,N#Cc1cc2cc3c(cc2nc1SCC(=O)N1CCOCC1)OCO3,"inconclusive: 39.8 µM [inhibitor, single point]"
17,COc1ccc(-n2nc(C(=O)NCC(=O)N3CCOCC3)c3ccccc3c2=O)cc1Cl,"inconclusive: 31.6 µM [quencher, side channel, single point]"
18,Nc1nc(-c2ccccc2)c(N=Nc2cccc3ccccc23)s1,"inconclusive: 7.08 µM [quencher, side channel, partial curve]"
19,Cn1nnnc1Sc1ncnc2scc(-c3ccc(F)cc3)c12,"inconclusive: 11.2 µM [quencher, side channel, partial curve]"

row,SMILES,Potency
1,C/C(=N\NC(=O)c1ccccc1[N+](=O)[O-])c1ccc(Br)s1,"inconclusive: 39.8 µM [fluorescent, side channel, single point]"
2,Cc1ccccc1-c1nsc(SCC(=O)Nc2ccc3c(c2)OCO3)n1,"inconclusive: 7.94 µM [quencher, side channel, full curve]"
3,C/C=C(\C)C(=O)OC1c2c(ccc3ccc(=O)oc23)OC(C)(C)C1OC(C)=O (stereo unspecified),inactive
4,Cc1ccc(S(=O)(=O)NCCS(=O)(=O)N2CCN(c3ccccc3)CC2)cc1,"inconclusive: 11.2 µM [inhibitor, single point]"
5,Cc1ccc(Nc2nc(-c3sc(NC(=O)c4ccccc4)nc3C)cs2)cc1,"inconclusive: 35.5 µM [quencher, side channel, partial curve]"
6,COc1ccc(-c2nnc(SCc3nc4ccccc4s3)n2C(C)C)cc1,"inconclusive: 0.562 µM [inhibitor, full curve, poor fit]"
7,Cc1ccc(CNC(=O)c2cc3c(=O)n4ccccc4nc3n(Cc3ccco3)c2=N)cc1,inactive
8,CS(=O)(=O)N1CCN(c2ccccc2NC(=S)NC(=O)c2ccccc2[N+](=O)[O-])CC1,"inconclusive: 20 µM [quencher, side channel, single point]"
9,COc1cc(C2c3c([nH]c(=O)[nH]c3=O)Nc3ccc4ccccc4c32)ccc1O (stereo unspecified),"inconclusive: 22.4 µM [quencher, side channel, single point]"
10,Cc1ccccc1-n1nc2c(c1NC(=O)c1c(-c3ccccc3Cl)noc1C)CSC2,"inconclusive: 10 µM [inhibitor, partial curve]"
11,O=C(CSc1ccccn1)Nc1cccc([N+](=O)[O-])c1,"inconclusive: 39.8 µM [quencher, side channel, single point]"
12,CN(c1ccccc1)S(=O)(=O)c1cccc(NC(=O)c2cc(=O)c3ccccc3o2)c1,"inconclusive: 8.91 µM [quencher, side channel, full curve, poor fit]"
13,O=C(C[n+]1cccc2ccccc21)c1ccc(Br)cc1,inactive
14,O=C(O)c1cc(-c2ccc(/C=N/Nc3ccc(Cl)cc3)o2)ccc1Cl,"inconclusive: 11.2 µM [quencher, side channel, partial curve]"
15,NS(=O)(=O)c1ccc(NC(=O)CSc2ccccc2)cc1,"inconclusive: 39.8 µM [fluorescent, side channel, single point]"
16,CCCCOC(=O)CSc1nnc(-c2cc(OC)c(OC)c(OC)c2)o1,"inconclusive: 39.8 µM [fluorescent, side channel, single point]"
17,CCOC(=O)C1(CCc2ccccc2)CCN(Cc2ccc(OC)cc2)CC1,"inconclusive: 3.98 µM [fluorescent, side channel, partial curve]"
18,CCC(C)NC(=O)c1nn(Cc2ccccc2)c(=O)c2ccccc12 (stereo unspecified),"inconclusive: 39.8 µM [quencher, single point]"
19,COc1ccc(CN(Cc2cc3cc(OC)c(OC)cc3[nH]c2=O)C(=O)NC2CCCCC2)cc1,inactive

row,SMILES,Potency
1,COCC(=O)Nc1cc(OC)cc(OC)c1,inactive
2,O=C(C1=C[C@H](c2coc3ccccc3c2=O)C[C@H](OCCCCO)O1)N1CCN(Cc2ccccc2)CC1,"inconclusive: 25.1 µM [fluorescent, side channel, partial curve]"
3,CCOc1ccc(NC(=O)C2CCN(S(=O)(=O)c3ccc4c(c3)C(C)(C)C(=O)N4C)CC2)cc1,"inconclusive: 39.8 µM [inhibitor, single point]"
4,Cc1[nH]n(C(N)=S)c(=O)c1N=Nc1ccccc1C(F)(F)F,"inconclusive: 11.2 µM [quencher, side channel, partial curve]"
5,C#CCn1c(=NC(=O)c2ccc(S(=O)(=O)N3CCc4ccccc4C3)cc2)sc2cc(S(N)(=O)=O)ccc21,"inconclusive: 2 µM [inhibitor, full curve]"
6,COc1ccc(N2CCN(C(=O)c3ccc(N(C)S(=O)(=O)c4ccc(OC)cc4)cc3)CC2)cc1,"inconclusive: 1.58 µM [inhibitor, full curve, poor fit]"
7,COc1ccc(N2CCN(C(=O)c3ccc(-n4nc(C)cc4C)cc3)CC2)cc1,"inconclusive: 8.91 µM [fluorescent, side channel, partial curve]"
8,Cc1ccc(S(=O)(=O)NC(C(=O)N2CCOCCOCCOCC2)c2ccccc2)cc1 (stereo unspecified),"inconclusive: 14.1 µM [fluorescent, side channel, partial curve]"
9,O=C(N/N=C/c1ccc(O)cc1O)NC12CC3CC(CC(C3)C1)C2,"inconclusive: 39.8 µM [quencher, side channel, partial curve]"
10,O=C(Cc1ccc(Cl)c(Cl)c1)Nc1ccc(SC(F)F)cc1,"inconclusive: 8.91 µM [quencher, side channel, partial curve]"
11,Cc1ccc(C2=N/C(=C\N3CCCCC3)C(=O)O2)cc1,inactive
12,O=C(Nc1nnc(-c2ccncc2)o1)c1ccc2ccccc2c1,"inconclusive: 31.6 µM [quencher, side channel, single point]"
13,Cc1ccc(NC(=O)CN2C(=O)S/C(=C/c3ccc(O)c([N+](=O)[O-])c3)C2=O)cc1C,"inconclusive: 15.8 µM [quencher, side channel, partial curve]"
14,CC(=O)c1cccc(NC(=O)Cc2cccs2)c1,"inconclusive: 28.2 µM [quencher, side channel, single point]"
15,Cc1ccc(C(=O)N2CCCC(C(=O)c3ccc(Cl)cc3C)C2)cn1 (stereo unspecified),"inconclusive: 11.2 µM [fluorescent, side channel, partial curve, poor fit]"
16,O=C(N/N=C/c1c(O)n(-c2ccc(Cl)cn2)c(=O)c2ccccc12)c1ccncc1,"inconclusive: 20 µM [quencher, side channel, partial curve]"
17,Cc1[nH]c(C)c(C(=O)/C=C/c2ccc([N+](=O)[O-])cc2)c1C,"inconclusive: 22.4 µM [quencher, side channel, partial curve]"
18,COc1cc(/C=C/c2[nH]c(=O)[nH]c(=O)c2[N+](=O)[O-])cc(OC)c1O,"inconclusive: 22.4 µM [quencher, side channel, partial curve]"
